Laboratory results published in patent EP2330125A2.

Target: amylin receptor (rat)
Test: 125I-amylin displacement, rat nucleus accumbens membranes

Question: How did the Receptor Binding turn out when “hAmylin(1-7)-11,18Arg-sCT(8-27)-Amylin(33-37) (sequence not shown) (peptide; modification not given)” was run?
Answer: Its Receptor Binding is 0.03.
